{"source": "PubChem BioAssay AID2147", "about": "(National Center for Advancing Translational Sciences (NCATS), 2009)", "note": "“And” between values parts separate entries of the source, which are not always exact repeats. Identical values can stand only once. Hit rate of the full screen: of about 230,000 compounds, about 3,600 (1.6%) were called active. The inconclusive results got no clear call from the source; some entries with a clear call stand among them for comparison. Calls come from the whole dose curve; as a rule, active = well fitted inhibition curve with a large enough effect (not every such curve was filed as active); inconclusive = small, poorly fitted or top-dose-only effect, or another doubt; inactive = no such curve, though single readings can be large or run the other way. Potencies beside an inconclusive call are fits to weak or partial responses and may not hold up. Some compounds were tested as several samples or in several runs, with calls that do not always agree. Note: nearly all actives have a fitted effect of over 50% in size. Potency is the fitted concentration of half-maximal effect; tags give direction and shape of the fitted curve.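 Throughout, for activity change, negative = inhibition: 0% = wells with enzyme and -100% = buffer wells without enzyme.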"}
{"target": "Lysine-specific demethylase 4E (Homo sapiens) (UniProt B2RXH2)", "sequence (B2RXH2 whole entry, looked up, the tested form may be a part)": "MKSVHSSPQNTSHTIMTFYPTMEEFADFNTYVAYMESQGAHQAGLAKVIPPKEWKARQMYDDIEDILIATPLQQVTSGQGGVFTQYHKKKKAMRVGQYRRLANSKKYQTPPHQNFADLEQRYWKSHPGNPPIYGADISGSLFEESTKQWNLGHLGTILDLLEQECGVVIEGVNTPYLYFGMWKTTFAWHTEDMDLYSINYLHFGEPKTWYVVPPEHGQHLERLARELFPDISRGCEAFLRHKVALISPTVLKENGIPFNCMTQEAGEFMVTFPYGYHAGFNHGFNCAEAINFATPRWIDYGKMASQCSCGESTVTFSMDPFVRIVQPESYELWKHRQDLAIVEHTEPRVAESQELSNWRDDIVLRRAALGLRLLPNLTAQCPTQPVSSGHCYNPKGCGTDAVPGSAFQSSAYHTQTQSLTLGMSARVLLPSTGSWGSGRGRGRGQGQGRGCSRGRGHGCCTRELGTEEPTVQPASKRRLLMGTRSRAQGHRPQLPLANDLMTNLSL", "experiment": "qHTS Assay for Inhibitors of Human Jumonji Domain Containing 2E (JMJD2E)", "conditions": "JMJD2E catalytic domain, FDH-coupled NADH fluorescence (FDH is formaldehyde dehydrogenase); series mostly up to 57.1 µM; activity change, negative = inhibition: at the top concentration"}
{"smiles": "CN1CC[C@@]2(c3cccc(O)c3)Cc3nc4ccccc4cc3C[C@H]2C1", "activity change, negative = inhibition": "inactive: -2.08%"}
{"smiles": "O=c1cc(-c2ccc(O)c(O)c2)oc2c(C3O[C@H](CO)[C@@H](O)[C@H](O)[C@H]3O)c(O)cc(O)c12", "note": "(some centres not stated)", "Potency": "active: 1 µM"}
{"smiles": "CCCC(C)C1(CC)C(=O)NC(=O)NC1=O", "note": "(configuration not stated)", "Potency": "inconclusive: 39.8 µM [inhibitor, single point]"}
{"smiles": "COc1cc2c(cc1OC)-c1c3c(cc4c1[C@@H](C2)N(C)CC4)OCO3", "Potency": "inconclusive: 31.6 µM [inhibitor, partial curve]"}
{"smiles": "O=C(CN1CC=C(c2ccccc2)CC1)NC(=O)NCc1ccccc1", "Potency": "inconclusive: 25.1 µM [inhibitor, partial curve]"}
{"smiles": "Fc1ccc(C(OCCN2CCN(C/C=C\\c3ccccc3)CC2)c2ccc(F)cc2)cc1", "Potency": "inconclusive: 35.5 µM [inhibitor, single point]"}
{"smiles": "O[N+]1=CC=CCC1=S.On1ccccc1=S.[Zn]", "Potency": "active: 2.51 µM"}
{"smiles": "Cc1ccccc1CN1CCN(c2ccc(Cl)cc2)CC1", "Potency": "active: 22.4 µM"}
{"smiles": "O=c1[nH]c(=S)[nH]c(O)c1N=Nc1cccc(S(=O)(=O)N2CCOCC2)c1", "activity change, negative = inhibition": "inactive: -4.2%"}
{"smiles": "Oc1cc2c(cc1O)[C@H]1c3ccccc3CN[C@H]1CC2", "Potency": "active: 25.1 µM"}
{"smiles": "CCn1c(NN=O)nc2ccccc21", "Potency": "inconclusive: 35.5 µM [inhibitor, single point]"}
{"smiles": "COc1cc2[nH]c(=O)n(-c3ccccc3)c(=O)c2cc1OC", "Potency": "inconclusive: 35.5 µM [inhibitor, partial curve]"}
{"smiles": "CN[C@@H](C)[C@H](O)c1ccccc1", "Potency": "active: 3.55 µM"}
{"smiles": "O=C(c1ccco1)c1cn(Cc2ccc(Cl)cc2)c2ccccc12", "Potency": "inconclusive: 39.8 µM [inhibitor, single point]"}
{"smiles": "C=CCN1CC[C@]23CCCCC2[C@H]1Cc1ccc(O)cc13", "note": "(some centres not stated)", "activity change, negative = inhibition": "inactive: -0.488%"}
{"smiles": "O=C(N/N=C/c1c(O)n(CCc2ccc(F)cc2)c(=O)[nH]c1=O)c1ccncc1", "Potency": "inconclusive: 10 µM [inhibitor, partial curve]"}
{"smiles": "O=C1NC(=S)N(c2ccc(F)cc2)C(=O)/C1=C\\c1ccoc1", "Potency": "inconclusive: 35.5 µM [inhibitor, single point]"}
{"smiles": "C=CCn1c(O)c(/C=N/NC(=O)c2ccncc2)c(=O)[nH]c1=O", "Potency": "inconclusive: 14.1 µM [inhibitor, partial curve]"}
{"smiles": "Cc1ccc(N2C(=O)NC(=O)/C(=C\\C=C\\c3ccco3)C2=O)cc1", "activity change, negative = inhibition": "inactive: -18.9%"}
{"smiles": "O=C1C=CC[C@@H]2[C@H]3CCCN4CCC[C@@H](CN12)[C@@H]34", "activity change, negative = inhibition": "inactive: -2.87%"}
{"smiles": "CCOC(=O)c1sc(=NC(=O)c2ccc(C)c(C)c2)n(C)c1C", "Potency": "inconclusive: 5.62 µM [inhibitor, full curve, poor fit]"}
{"smiles": "O=C1NC(=O)N(c2ccc3c(c2)OCO3)C(=O)/C1=C\\c1ccsc1", "Potency": "inconclusive: 39.8 µM [inhibitor, single point]"}
{"smiles": "NC(CCCCCP(=O)(O)O)C(=O)O", "note": "(configuration not stated)", "activity change, negative = inhibition": "inactive: -1.97%"}
{"smiles": "O=c1[nH]c(=S)[nH]c(O)c1N=Nc1ccc(S(=O)(=O)N2CCc3ccccc32)cc1", "activity change, negative = inhibition": "inactive: -5.85%"}
{"smiles": "CCOc1cc(C=C2C(=O)NC(=O)NC2=O)ccc1OCC(=O)N1CCOCC1", "Potency": "inconclusive: 35.5 µM [inhibitor, single point]"}
{"smiles": "Nc1ccccc1N=Cc1c(O)n(CCC2=CCCCC2)c(=O)[nH]c1=O", "Potency": "inconclusive: 39.8 µM [inhibitor, single point]"}
{"smiles": "CCCCCCC(=O)N/N=C/c1c(O)n(C2CC2)c(=S)[nH]c1=O", "Potency": "inconclusive: 28.2 µM [inhibitor, single point]"}
{"smiles": "Cc1cc(C=C2C(=O)NC(=O)NC2=O)c(C)n1-c1ccc2c(c1)OCO2", "activity change, negative = inhibition": "inactive: -14.1%"}
{"smiles": "COc1ccc(-c2n(-c3ccccn3)c3ccccc3[n+]2-c2ccccn2)cc1", "Potency": "inconclusive: 35.5 µM [inhibitor, single point]"}
{"smiles": "O=C1NC(=O)N(c2ccccc2)C(=O)/C1=C/c1coc2ccc(O)cc2c1=O", "Potency": "inconclusive: 35.5 µM [inhibitor, single point]"}
{"smiles": "COc1ccc(NC(c2ccccc2F)P(=O)(Oc2ccccc2)Oc2ccccc2)cc1", "note": "(configuration not stated)", "Potency": "inconclusive: 25.1 µM [inhibitor, single point]"}
{"smiles": "O=C(Nc1nc(-c2ccccc2)c(-c2ccccc2)s1)c1ccc(S(=O)(=O)N(CCCl)CCCl)cc1", "Potency": "inconclusive: 25.1 µM [inhibitor, partial curve]"}
{"smiles": "c1ccc2c(CN3CCCCC3)c[nH]c2c1", "Potency": "inconclusive: 39.8 µM [inhibitor, single point]"}
{"smiles": "O=C(Cn1ncc2c3ccccc3n(Cc3ccccc3F)c2c1=O)N1CCC2(CC1)OCCO2", "Potency": "inconclusive: 39.8 µM [inhibitor, single point]"}
{"smiles": "CC(C)=CCCC1(C)C=Cc2c(O)c3c(c(CC=C(C)C)c2O1)OC12C(=CC4CC1C(C)(C)OC2(C/C=C(/C)C(=O)O)C4=O)C3=O", "note": "(configuration not stated)", "Potency": "inconclusive: 39.8 µM [inhibitor, single point]"}
{"smiles": "Clc1ccc(OCC#CCN2CCOCC2)cc1", "Potency": "inconclusive: 39.8 µM [inhibitor, single point]"}
{"smiles": "CC(C)CCNC(=O)c1c(N)n(Cc2ccc3c(c2)OCO3)c2nc3ccccc3nc12", "Potency": "inconclusive: 28.2 µM [inhibitor, partial curve]"}
{"smiles": "COc1cc2c(cc1O)C[C@H]1c3c(cc(OC)c(O)c3-2)CCN1C", "Potency": "inconclusive: 28.2 µM [inhibitor, partial curve]"}
{"smiles": "O=C(COc1ccccc1)N1CCN(C2CCCC2)CC1", "Potency": "inconclusive: 35.5 µM [inhibitor, single point]"}
{"smiles": "CN[C@H]1C[C@H]2O[C@@](C)([C@H]1OC)n1c3ccccc3c3c4c(c5c6ccccc6n2c5c31)C(=O)NC4", "Potency": "inconclusive: 28.2 µM [inhibitor, partial curve]"}
{"smiles": "CC1C(=O)OC2C1CC[C@@]1(C)C=CC(=O)[C@@]3(C)O[C@@]213", "note": "(some centres not stated)", "activity change, negative = inhibition": "inactive: 4.18%"}
{"smiles": "CC[N+](C)(CC)CCC[n+]1c(-c2ccccc2)c2cc(N)ccc2c2ccc(N)cc21", "Potency": "inconclusive: 2.51 µM [inhibitor, full curve]"}
{"smiles": "CCOC(=O)c1cc(C)sc1/N=C/C1C(=O)NC(=S)NC1=O", "Potency": "inconclusive: 28.2 µM [inhibitor, single point]"}
{"smiles": "NCC(O)c1ccc(O)cc1", "note": "(configuration not stated)", "Potency": "inconclusive: 39.8 µM [inhibitor, single point]"}
{"smiles": "CNc1ccc2oc(C[C@H]3O[C@]4(CC[C@H]3C)O[C@H]([C@H](C)C(=O)c3ccc[nH]3)[C@H](C)C[C@H]4C)nc2c1C(=O)O", "Potency": "inconclusive: 14.1 µM [inhibitor, partial curve]"}
{"smiles": "S=c1[nH]nc(-c2ccccc2)n1CC1CCCO1", "note": "(configuration not stated)", "Potency": "inconclusive: 35.5 µM [inhibitor, single point]"}
{"smiles": "C[N+]1(C)C2CCC1CC(OC(=O)C(CO)c1ccccc1)C2", "note": "(configuration not stated)", "Potency": "active: 10 µM"}
{"smiles": "O=C(Cn1c(=O)c(C(F)(F)F)nc2ccccc21)N1CCC2(CC1)OCCO2", "Potency": "inconclusive: 31.6 µM [inhibitor, partial curve]"}
{"smiles": "O=C(CNC1CCCCC1)N1CCC2(CC1)OCCO2", "activity change, negative = inhibition": "inactive: -15.8%"}
{"smiles": "CN1CC[C@@H]2CN3CCc4cccc(c43)[C@H]2C1", "Potency": "inconclusive: 15.8 µM [inhibitor, partial curve]"}
{"smiles": "CCOC(=O)c1ccc2[nH]c(-c3ccc(S(=O)(=O)F)cc3)cc(=O)c2c1", "Potency": "inconclusive: 12.6 µM [inhibitor, partial curve, poor fit]"}
{"smiles": "Clc1ccc(OCCCN2CCCC2)cc1Cl", "Potency": "inconclusive: 31.6 µM [inhibitor, single point]"}
{"smiles": "O=C1Nc2ccccc2/C1=C/c1nc2ccccc2c(=O)n1-c1ccc(O)cc1", "activity change, negative = inhibition": "inactive: -5.94%"}
{"smiles": "O=C(O)c1nn(Cc2ccc(Cl)c(Cl)c2)c2ccccc12", "activity change, negative = inhibition": "inactive: 7.2%"}
{"smiles": "O=C(O)c1ccccc1N=Nc1c(O)[nH]c(=O)[nH]c1=O", "activity change, negative = inhibition": "inactive: 6.89%"}
{"smiles": "O=C(O)c1ccc[nH]c1=S", "Potency": "active: 17.8 µM"}
{"smiles": "COc1cc2c(cc1OC)C(C(=O)N1CCC3(CC1)OCCO3)C(c1ccccc1F)N(C)C2=O", "note": "(configuration not stated)", "Potency": "inconclusive: 28.2 µM [inhibitor, single point]"}
{"smiles": "CCCc1cc2c(n1Cc1ccco1)C(C)C1CN(C(=O)c3ccccc3)C(C)(C(=O)OC)C21", "note": "(configuration not stated)", "Potency": "inconclusive: 35.5 µM [inhibitor, single point]"}
{"smiles": "COc1ccc(CCNCc2ccncc2)cc1OC", "Potency": "inconclusive: 28.2 µM [inhibitor, single point]"}
{"smiles": "COc1cc(OC)cc(C(=O)N2CCC(N3CCN(c4ccccc4)CC3)CC2)c1", "Potency": "inconclusive: 31.6 µM [inhibitor, single point]"}
{"smiles": "COc1ccc(CCNCc2cccc(C(F)(F)F)c2)cc1OC", "Potency": "inconclusive: 35.5 µM [inhibitor, single point]"}
{"smiles": "CC(C)n1c(=O)c(C=Nc2ccc(Br)cc2)c(O)n(Cc2ccco2)c1=O", "Potency": "inconclusive: 28.2 µM [inhibitor, partial curve]"}
{"smiles": "CCCCN1C(=O)NC(=O)C2(Cc3c(nc4ccccn4c3=O)N3CCc4ccccc4C32)C1=O", "note": "(configuration not stated)", "Potency": "inconclusive: 28.2 µM [inhibitor, partial curve]"}
{"smiles": "CC1=CC[C@@H]2[C@@H](C1)c1c(O)cc(CC#CCCCNS(C)(=O)=O)cc1OC2(C)C", "Potency": "inconclusive: 39.8 µM [inhibitor, single point]"}
{"smiles": "CCN(CC)c1nc2c(C)cccn2c(=O)c1C=C1C(=O)NC(=O)NC1=O", "Potency": "inconclusive: 31.6 µM [inhibitor, single point]"}
{"smiles": "O=c1c2ccccc2[se]n1-c1ccccc1", "Potency": "active: 1.26 µM and active: 6.31 µM and active: 398 nM"}
{"smiles": "[N-]=[N+]=NCc1cn2cccnc2n1", "Potency": "inconclusive: 28.2 µM [inhibitor, partial curve]"}
